{"source": "the antibiotic and cytotoxicity screens of Wong et al. (2023)", "note": "The other results are listed elsewhere or left out.", "data": [{"test_system": "HSkMC (human skeletal muscle cells)", "assay": "cytotoxicity call (relative viability < 0.9)", "details": "10 µM", "values": [{"smiles": "C[C@H]([C@H](C)N1CC(=O)NC(=O)C1)N1CC(=O)NC(=O)C1", "cytotoxicity call": "inactive"}, {"smiles": "C[C@H]1CN([C@@H](C)CO)S(=O)(=O)c2ccc(C#Cc3ccccc3)cc2O[C@@H]1CN(C)C(=O)Cc1ccccn1", "cytotoxicity call": "inactive"}, {"smiles": "COc1ccc(NC(=O)Nc2ccc3c(c2)C(=O)N([C@H](C)CO)C[C@H](C)[C@@H](CN(C)S(=O)(=O)c2ccc(OC)cc2)OCCCC[C@@H](C)O3)cc1", "cytotoxicity call": "inactive"}, {"smiles": "C[C@@H]1CN([C@@H](C)CO)C(=O)Cc2cc(NC(=O)CCN3CCOCC3)ccc2O[C@@H]1CN(C)S(=O)(=O)c1cccs1", "cytotoxicity call": "inactive"}, {"smiles": "C[C@H]1CCCCO[C@@H](CN(C)Cc2ccc3c(c2)OCO3)[C@@H](C)CN([C@@H](C)CO)C(=O)c2cc(NC(=O)Nc3cccc4ccccc34)ccc2O1", "cytotoxicity call": "active"}, {"smiles": "COc1ccccc1C#Cc1cnc2c(c1)C(=O)N([C@@H](C)CO)C[C@@H](C)[C@H](CN(C)C(=O)c1ccc3c(c1)OCO3)O2", "cytotoxicity call": "inactive"}, {"smiles": "COc1ccc(S(=O)(=O)N(C)C[C@H]2Oc3ccc(NC(=O)Cc4ccccc4)cc3CC(=O)N([C@H](C)CO)C[C@@H]2C)cc1", "cytotoxicity call": "inactive"}, {"smiles": "NC(=O)c1cccc(Br)n1", "cytotoxicity call": "inactive"}, {"smiles": "C[C@H](CO)N1C[C@H](C)[C@@H](CN(C)C(=O)Cc2ccccc2)OCCCC[C@H](C)Oc2ccc(NC(=O)Cc3ccccc3)cc2C1=O", "cytotoxicity call": "inactive"}, {"smiles": "COCc1cc(C)nc(N)c1C#N", "cytotoxicity call": "inactive"}, {"smiles": "C[C@H](CO)N1C[C@H](C)[C@H](CN(C)S(=O)(=O)c2cn(C)cn2)Oc2c(NS(=O)(=O)c3cn(C)cn3)cccc2C1=O", "cytotoxicity call": "inactive"}, {"smiles": "C[C@H](CO)N1C[C@H](C)[C@H](CN(C)S(=O)(=O)c2ccccc2)Oc2ncc(C#Cc3ccccc3)cc2C1=O", "cytotoxicity call": "inactive"}, {"smiles": "C[C@H](CO)N1C[C@H](C)[C@@H](CN(C)S(=O)(=O)c2ccc(F)cc2)Oc2ccc(NS(=O)(=O)c3cccs3)cc2CC1=O", "cytotoxicity call": "inactive"}]}, {"test_system": "S. aureus RN4220", "assay": "growth inhibition call (relative growth <= 0.2)", "details": "50 µM", "values": [{"smiles": "COCCNC(=O)C[C@@H]1C[C@@H]2c3cc(NS(C)(=O)=O)ccc3O[C@@H]2[C@@H](CO)O1", "growth inhibition call": "inactive"}, {"smiles": "Cc1noc(C)c1S(=O)(=O)N(C)C[C@@H]1Oc2ccc(NC(=O)Cc3ccccc3)cc2CC(=O)N([C@@H](C)CO)C[C@H]1C", "growth inhibition call": "inactive"}, {"smiles": "C[C@H]1OC(=O)CC[C@@H](O)/C=C/[C@@H](O)[C@@H]1O", "growth inhibition call": "inactive"}, {"smiles": "C[C@H](CO)N1C[C@H](C)[C@@H](CN(C)C(=O)CN(C)C)Oc2cc(C#C[C@@H](C)O)ccc2S1(=O)=O", "growth inhibition call": "inactive"}, {"smiles": "CC(C)NC(=O)N(C)C[C@H]1Oc2ccc(NC(=O)CCC(F)(F)F)cc2C(=O)N([C@@H](C)CO)C[C@H]1C", "growth inhibition call": "inactive"}, {"smiles": "C[C@@H]1CCCCO[C@H](CN(C)Cc2ccc3c(c2)OCO3)[C@H](C)CN([C@H](C)CO)C(=O)c2cc(NC(=O)Nc3cccc4ccccc34)ccc2O1", "growth inhibition call": "inactive"}, {"smiles": "Cc1ccc(S(=O)(=O)Nc2ccc3c(c2)C(=O)N([C@@H](C)CO)C[C@@H](C)[C@H](CN(C)S(=O)(=O)c2ccc(F)cc2)O3)cc1", "growth inhibition call": "inactive"}, {"smiles": "C[C@@H]1CN([C@H](C)CO)C(=O)c2cccc(NS(C)(=O)=O)c2O[C@H]1CN(C)C(=O)Nc1ccc2c(c1)OCO2", "growth inhibition call": "inactive"}, {"smiles": "C[C@@H]1CCCCO[C@H](CN(C)Cc2ccncc2)[C@H](C)CN([C@@H](C)CO)C(=O)c2cc(NC(=O)CCC(F)(F)F)ccc2O1", "growth inhibition call": "inactive"}, {"smiles": "CN1CCN(C(=O)C[C@@H]2CC[C@@H]3[C@H](COC[C@H](O)CN3C(=O)Nc3cc(Cl)cc(Cl)c3)O2)CC1", "growth inhibition call": "inactive"}, {"smiles": "CS(=O)(=O)c1ccc(C(O)C(CO)NC(=O)C(Cl)Cl)cc1", "note": "(stereo not drawn)", "growth inhibition call": "inactive"}, {"smiles": "CN(C)CC(=O)N1CC2(C1)[C@H](c1ccccc1)[C@H](CO)N2S(C)(=O)=O", "growth inhibition call": "inactive"}, {"smiles": "C[C@@H]1CN([C@@H](C)CO)C(=O)c2cc(NS(=O)(=O)c3ccc(F)cc3)ccc2O[C@@H](C)CCCCO[C@@H]1CN(C)S(=O)(=O)c1ccc(Cl)cc1", "growth inhibition call": "inactive"}, {"smiles": "C[C@H](CO)N1C[C@H](C)[C@H](CN(C)S(=O)(=O)c2ccc(Cl)cc2)OCCCC[C@H](C)Oc2ccc(NC(=O)C3CCCCC3)cc2C1=O", "growth inhibition call": "inactive"}, {"smiles": "C[C@H](CO)N1C[C@H](C)[C@@H](CN(C)C(=O)Nc2ccc3c(c2)OCO3)Oc2ccc(NC(=O)Nc3ccc(C(F)(F)F)cc3)cc2CC1=O", "growth inhibition call": "inactive"}, {"smiles": "C[C@@H]1CN([C@@H](C)CO)C(=O)c2cc(NC(=O)Nc3cccc4ccccc34)ccc2O[C@@H](C)CCCCO[C@@H]1CN(C)S(=O)(=O)c1cccs1", "growth inhibition call": "inactive"}, {"smiles": "C[C@@H]1CN([C@H](C)CO)C(=O)c2cc(NC(=O)Nc3ccc(C(F)(F)F)cc3)ccc2O[C@H]1CN(C)Cc1ccncc1", "growth inhibition call": "inactive"}, {"smiles": "C[C@@H]1CCCCO[C@H](CN(C)C(=O)Nc2ccc(C(F)(F)F)cc2)[C@H](C)CN([C@@H](C)CO)C(=O)c2cc(NC(=O)C3CCCCC3)ccc2O1", "growth inhibition call": "inactive"}, {"smiles": "O=C(C[C@@H]1C[C@H]2c3cc(NC(=O)c4ccc5c(c4)OCO5)ccc3O[C@H]2[C@@H](CO)O1)NCc1ccccn1", "growth inhibition call": "inactive"}, {"smiles": "C=CCC[C@@H](Cc1ccc(F)cc1)C(=O)OC[C@@H](NC(=O)[C@@H](CC=C)CC(=O)N[C@@H](CO)Cc1ccccc1)C(C)(C)C", "growth inhibition call": "inactive"}, {"smiles": "C[C@@H]1CN([C@@H](C)CO)C(=O)c2cc(NC(=O)Cn3cnnn3)ccc2O[C@H]1CN(C)C(=O)Nc1cccc2ccccc12", "growth inhibition call": "inactive"}, {"smiles": "Cc1noc(C)c1S(=O)(=O)N(C)C[C@@H]1OCCCC[C@H](C)Oc2ccc(NC(=O)Nc3ccccc3)cc2C(=O)N([C@@H](C)CO)C[C@H]1C", "growth inhibition call": "inactive"}, {"smiles": "Cc1noc(C)c1S(=O)(=O)Nc1ccc2c(c1)C(=O)N([C@@H](C)CO)C[C@H](C)[C@H](CN(C)S(=O)(=O)c1ccccc1)O2", "growth inhibition call": "inactive"}, {"smiles": "COc1ccc(C#Cc2ccc3c(c2)[C@]2(C(=O)N3)[C@H](c3ccc(OCCO)cc3)N3[C@H](c4ccccc4)[C@H](c4ccccc4)OC(=O)[C@H]3[C@@H]2C(=O)N2CCN(c3ncccn3)CC2)cc1", "growth inhibition call": "inactive"}, {"smiles": "C[C@H](CO)N1C[C@H](C)[C@H](CN(C)C(=O)c2cccnc2)Oc2cc(C#CC3(O)CCCC3)ccc2S1(=O)=O", "growth inhibition call": "inactive"}, {"smiles": "C[C@@H]1CCCCO[C@H](CN(C)S(=O)(=O)c2cn(C)cn2)[C@@H](C)CN([C@H](C)CO)C(=O)c2cc(NC(=O)c3ccncc3)ccc2O1", "growth inhibition call": "inactive"}, {"smiles": "CN1C(=O)c2cc(NC(=O)c3cscn3)ccc2OC[C@@H]2O[C@H](CC(=O)N3CCOCC3)CC[C@@H]21", "growth inhibition call": "inactive"}, {"smiles": "C[C@H]([C@H](C)N1CC(=O)NC(=O)C1)N1CC(=O)NC(=O)C1", "growth inhibition call": "inactive"}, {"smiles": "C[C@H]1CN([C@@H](C)CO)S(=O)(=O)c2ccc(C#Cc3ccccc3)cc2O[C@@H]1CN(C)C(=O)Cc1ccccn1", "growth inhibition call": "inactive"}, {"smiles": "COc1ccc(NC(=O)Nc2ccc3c(c2)C(=O)N([C@H](C)CO)C[C@H](C)[C@@H](CN(C)S(=O)(=O)c2ccc(OC)cc2)OCCCC[C@@H](C)O3)cc1", "growth inhibition call": "inactive"}, {"smiles": "C[C@@H]1CN([C@@H](C)CO)C(=O)Cc2cc(NC(=O)CCN3CCOCC3)ccc2O[C@@H]1CN(C)S(=O)(=O)c1cccs1", "growth inhibition call": "inactive"}, {"smiles": "C[C@H]1CCCCO[C@@H](CN(C)Cc2ccc3c(c2)OCO3)[C@@H](C)CN([C@@H](C)CO)C(=O)c2cc(NC(=O)Nc3cccc4ccccc34)ccc2O1", "growth inhibition call": "inactive"}, {"smiles": "COc1ccccc1C#Cc1cnc2c(c1)C(=O)N([C@@H](C)CO)C[C@@H](C)[C@H](CN(C)C(=O)c1ccc3c(c1)OCO3)O2", "growth inhibition call": "inactive"}, {"smiles": "COc1ccc(S(=O)(=O)N(C)C[C@H]2Oc3ccc(NC(=O)Cc4ccccc4)cc3CC(=O)N([C@H](C)CO)C[C@@H]2C)cc1", "growth inhibition call": "inactive"}, {"smiles": "NC(=O)c1cccc(Br)n1", "growth inhibition call": "inactive"}, {"smiles": "C[C@H](CO)N1C[C@H](C)[C@@H](CN(C)C(=O)Cc2ccccc2)OCCCC[C@H](C)Oc2ccc(NC(=O)Cc3ccccc3)cc2C1=O", "growth inhibition call": "inactive"}, {"smiles": "COCc1cc(C)nc(N)c1C#N", "growth inhibition call": "inactive"}, {"smiles": "C[C@H](CO)N1C[C@H](C)[C@H](CN(C)S(=O)(=O)c2cn(C)cn2)Oc2c(NS(=O)(=O)c3cn(C)cn3)cccc2C1=O", "growth inhibition call": "inactive"}, {"smiles": "C[C@H](CO)N1C[C@H](C)[C@H](CN(C)S(=O)(=O)c2ccccc2)Oc2ncc(C#Cc3ccccc3)cc2C1=O", "growth inhibition call": "inactive"}, {"smiles": "C[C@H](CO)N1C[C@H](C)[C@@H](CN(C)S(=O)(=O)c2ccc(F)cc2)Oc2ccc(NS(=O)(=O)c3cccs3)cc2CC1=O", "growth inhibition call": "inactive"}]}]}
